Laboratory results reported in PubChem BioAssay AID624296 (National Center for Advancing Translational Sciences (NCATS), 2012).
The whole screen tested about 350,000 compounds, of which about 9,900 (2.8%) were called active. Inconclusive means that the source gave no clear call. Such entries were picked first, then a sample of the others. The call rests on the fitted dose curve; in most records, active means well fitted activation curve with a large enough effect; inconclusive means small, poorly fitted or top-dose-only effect; inactive means no such curve, though single readings can be large or run the other way. No potency is given beside an inconclusive call; the fits are too rough.

test: A quantitative high throughput screen for small molecules that induce DNA re-replication in MCF 10a normal breast cells.; further: nearly all actives have a fitted effect of over 50% in size; details: MCF 10A DNA re-replication, Hoechst nuclear intensity, 48 h; series mostly up to 46.1 µM
Potency means the concentration at half of the fitted maximal effect; tags describe the fitted curve by direction and shape.

SMILES	Potency
O=C(C[C@H]1C[C@H](C(=O)N2CCOCC2)[C@@]2(CCC3CCCC3)c3[nH]c4ccc(Cl)cc4c3CCN2C1=O)NCc1ccco1	inconclusive [activator, partial curve, poor fit]
COc1cc(-c2noc(C)n2)cc(OC)c1OC	inactive
CCCC(CCC)C(=O)Nc1ccc2c(c1)N(C(=O)CCN1CCN(C)CC1)c1ccccc1CC2	inconclusive [activator, single point]
CN1CCN(S(=O)(=O)c2ccc(SCCOc3ccc(Cl)cc3)nc2)CC1	inconclusive [activator, partial curve]
Oc1c(Br)cc2oc3c(c2c1CNCc1ccccc1)CCCC3	inconclusive [activator, single point]
Cc1ccc(S(=O)(=O)NCc2c(Cl)cccc2Oc2ccccc2)cc1	inconclusive [activator, single point]
CCCCCCn1c(SCCCC)nc2c1c(=O)[nH]c(=O)n2C	inactive
COc1ccc(-n2cnnc2SCC(=O)c2cc(C)n(Cc3cccs3)c2C)cc1	inconclusive [activator, single point]
CC(C)Cn1[nH]c2c3c(ccc2c1=O)C(=O)c1ccccc1C3=O	inconclusive [activator, single point]
CNCc1c(OCc2ccccc2F)ccc2ccccc12	inconclusive [activator, partial curve, poor fit]
O=C(CCl)N(c1ccccc1)c1c[nH]c2ccccc12	active: 14.6 µM
CC(C)(C)C(C(=O)Oc1ccccc1)c1ccccc1 (centres undefined)	inconclusive [activator, full curve, poor fit]
O=C(c1cc2ncc(Br)cn2n1)N1CCCCC1	inconclusive [activator, partial curve, poor fit]
CCN1CCN(C(=O)/C(=C/c2cccs2)NC(=O)c2ccc(C)c(C)c2)CC1	inactive
O=C(c1c(F)cccc1F)N1CCCC(c2nc(-c3ccc(F)cc3)no2)C1 (centres undefined)	inconclusive [activator, single point]
CC(Oc1ccccc1)C(=O)N=C1SC2CS(=O)(=O)CC2N1Cc1ccccc1 (centres undefined)	inactive
CCc1cccc(NC(=O)c2ccc(CNc3c(N4CCCC4)c(=O)c3=O)cc2)c1	inactive
O=C(CCNC(=O)c1ccccc1)NCCc1ccc(Cl)cc1	inactive
COc1cc(Cl)c(S(=O)(=O)N2CCCC2)cc1Cl	inconclusive [activator, single point]
